# Test results: the RNAGym collection of RNA variant scans (doi:10.1073/pnas.2313332121)
# Variants at the background level are over-represented here.
# B1: TPR 5TU (parent)
# chain: GGAUCUUCUCGAUCUAACAAAAAAGACAAAUCUGCCACAAAGCUUGAGAGCAUCUUCGGAUGCAGAGGCGGCAGCCUUCGGUGGCGCGAUAGCGCCAACGUUCUCAACUAUGACACGCAAAACGCGUGCUCCGUUGAAUGGAGUUUAUCAUG
# Variants of: B1
# Assay: polymerase ribozyme fitness, log enrichment relative to wild type (log ratio); higher = more active; in vitro selection for triplet polymerase activity
# In short: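 Input and output libraries were sequenced on Illumina after a single in vitro selection round, run in triplicate on PCR-built, transcribed mutant libraries of each subunit of a heterodimeric triplet polymerase ribozyme. Selection annealed libraries to a biotinylated primer, the partner subunit and triplets, incubated them frozen at −7 °C, then gel-excised extended constructs for streptavidin-bead capture and RT-PCR. Genotypes with ≥10 input reads and ≥1 read per output were kept. Fitness is the logarithm, taken in base 2, of genotype enrichment divided by wild-type enrichment, using inverse-variance-weighted replicate averages.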
row,Variant,polymerase ribozyme fitness (log ratio)
1,A23C G42U A91G A97U A115U C116A,≤ -4.2
2,A23U A40C C54A A122C U135A A137C U146G,≤ -4.2
3,A23U C35A G58U G80U G94C C99G U151G,≤ -4.2
4,A23U A24U C54A U56A C85U U104C G126A U130C,≤ -4.2
5,A23G G59A G68U A142U,≤ -4.2
6,A23G C32G G70A C85G,≤ -4.2
7,A23C A26U A29G G42C G124U,≤ -4.2
8,A23U A41C A47U U55A A64G G88A G124U,≤ -4.2
9,A23U A37C G67U C108U U135C G141U,≤ -4.2
10,A23G C57A C72A C96A G140U,≤ -4.2
11,A23G G59A G62C A91C C95A,≤ -4.2
12,A23C A39G C63U U104C C108G U135C,≤ -4.2
13,A23U G34A C93G A98G G117A,≤ -4.2
14,A23C G94U C96A A98U G141A U146G G152A,≤ -4.2
15,A23G U53C G74C,≤ -4.2
16,A23G A47U G70A C87G U139C U146C U148G,≤ -4.2
17,A23U A24C G25U G94C A119C C123A G141C,≤ -4.2
18,A23C C32G A91C,≤ -4.2
19,A23U G50A G83C G92C C95A C96U U109G,≤ -4.2
20,A23U C87G C125U G143A,≤ -4.2
21,A23U G25C G68A U77C C99U U130C G141C,≤ -4.2
22,A23U C149U,≤ -4.2
23,A23U C38U U53G U56A A60U G92C A113C C132A,≤ -4.2
24,A23U C27G U53G U55C A120G,≤ -4.2

row,Variant,polymerase ribozyme fitness (log ratio)
1,A23U A26C G88U,≤ -4.2
2,A23G U44A U61A G70U C76G C93G G143C,≤ -4.2
3,A23C U45C U61G A89G C99A C149G,≤ -4.2
4,A23C A37U,≤ -4.2
5,A23G C38U U61A,≤ -4.2
6,A23C A97G A115C,≤ -4.2
7,A23C A28U C63U A91U A150G,≤ -4.2
8,A23C A40G A49G G58C G74A U82G U134A C149A,≤ -4.2
9,A23C G59U U144A U146G,≤ -4.2
10,A23C U56G G83U G126A,≤ -4.2
11,A23C A91U U102G C118U,≤ -4.2
12,A22U U33A A52G A60G G62A A66G G71U G92C U145C,≤ -4.2
13,A23U G46A C87G C96U C114U C125G A150C,≤ -4.2
14,A23G G68A C85A G143U,≤ -4.2
15,A23U A52G C87A U111G C114A,≤ -4.2
16,A22U U44G U56C G58C G88U G117C,≤ -4.2
17,A23G C27G A106C G126C,≤ -4.2
18,A22U U31C U53A G80U G92U A142U,≤ -4.2
19,A23U C57A C99G A115U C123A C132A,≤ -4.2
20,A23U G25A A26G C27A A49C G81U A89C A98C C108U G140U,≤ -4.2
21,A23G G50C,-4
22,A22U U55A U134C U135G U146G,≤ -4.2
23,A23C A29C U31G U33C C95U C96U A107U U127C A138C,≤ -4.2
24,A23G G58C U104G U139G G141C U151G,≤ -4.2

row,Variant,polymerase ribozyme fitness (log ratio)
1,A23C A28U C32U U135C,≤ -4.2
2,A23U C35U G58C C93U,≤ -4.2
3,A23C U44C A64C G92C A97U,≤ -4.2
4,A23U A47G G50A A73U C87A A147U,≤ -4.2
5,A23C A29C C54A G59C G67U G74A U130C A142C,≤ -4.2
6,A23U A49G U56A A113U G140U,≤ -4.2
7,A23C G42C U44A A52C C96U C132U U145G,≤ -4.2
8,A23U A66C C95U A98G U130G,≤ -4.2
9,A23U C93A U135C,≤ -4.2
10,A23U G25U C35A G143A,≤ -4.2
11,A23U C51A G83A U146G,≤ -4.2
12,A23G A73U G81C,-4.17
13,A23C A40C G83U U102A U145A,≤ -4.2
14,A23C A39C U53C A60G G67A A119C U139C,≤ -4.2
15,A23G A89G A91G C95U U148G,≤ -4.2
16,A23U C57U,-3.64
17,A23U A24U U55A G58A A89U A91G A110G C131U,≤ -4.2
18,A23G C32U G59C U109A C116A G124U,≤ -4.2
19,A23C C95U A98U G128A,≤ -4.2
20,A23C U55A G88A C95U A121G U134A,≤ -4.2
21,A23G C87U U127C,-3.81
22,A23C U33G A47C C87G,≤ -4.2
23,A23U A26G A91C,≤ -4.2
24,A23U C76G G86U U109G A150G,≤ -4.2

row,Variant,polymerase ribozyme fitness (log ratio)
1,A23G G86U C93U A150U,-3.88
2,A23C C27U C43U G80A C93U G133A U148C,≤ -4.2
3,A23C A28U C43U U55A C57U G59A U111A G141C,≤ -4.2
4,A23G G48A U101A,≤ -4.2
5,A23U A28U A41U A64G C75U A120U G140A,≤ -4.2
6,A23C A30G C32A A40G C95G A110U,≤ -4.2
7,A23C C75G C103U,≤ -4.2
8,A23C G84A,≤ -4.2
9,A23U C36U A40C A41G C85G C105G G140A,≤ -4.2
10,A23C C85G C95U,≤ -4.2
11,A23U A28U G65A G80U C99U C132A,≤ -4.2
12,A22U U127A,-3.54
13,A23G A28C A47C G141C,≤ -4.2
14,A23U C35A U145C,≤ -4.2
15,A23G A29G C95G G152U,-3.84
16,A23U G50U C99G U104G,≤ -4.2
17,A23U C27G G46U U56A C57G G67U G74A U78G G88C C95G U101G G136U U148G,≤ -4.2
18,A23C U45A G50C A91U A113C A121U G140C,≤ -4.2
19,A23U C93A,≤ -4.2
20,A23C C87U G112U,-3.99
21,A23G U90A C93U C105U C125U,≤ -4.2
22,A23G G25U G46C U53A C75A G84C C96A G141A U144G,≤ -4.2
23,A23C A29G C57U G81C G86A A97C,≤ -4.2
24,A23C A39U U53A G86U A98G C105A,≤ -4.2

row,Variant,polymerase ribozyme fitness (log ratio)
1,A23U C38U A73C C93A G128U,≤ -4.2
2,A22U U55A,-0.43
3,A23U A29G U101C,≤ -4.2
4,A23C G58U G67U G80U,≤ -4.2
5,A23U G42A G83A G141U,≤ -4.2
6,A23G G42C G46A U61A G67C C85U A98U U148A,≤ -4.2
7,A23U A52C C87A C96U,≤ -4.2
8,A23G G25C C75G A147G G152U,≤ -4.2
9,A23C U33A A41G A60U G94C,≤ -4.2
10,A23U G42U G58U C75U U148G,≤ -4.2
11,A23C A98U A113U,-4.18
12,A23C A30U G50A C54A C93G C95U G124A,≤ -4.2
13,A23U A47G C93U U127C C131G,≤ -4.2
14,A23U C35G,≤ -4.2
15,A23G A49G G62C C99U C116U C125G,≤ -4.2
16,A23U C79U C96U C99A A115U,≤ -4.2
17,A23C C51U U53A C99U G140U U144C,≤ -4.2
18,A23C A52G A137C G141C,≤ -4.2
19,A23U A29C G62C G68U C95U C99A A122C A142U,≤ -4.2
20,A23U G25U A60U G100U,≤ -4.2
21,A23U G70A G100U C116U U135A,≤ -4.2
22,A23U C125A,-3.51
23,A23G G81A A121U G141U,-2.76
24,A23C G58U A60G C69A C103U,≤ -4.2

row,Variant,polymerase ribozyme fitness (log ratio)
1,A23C U53A C93U U134G,≤ -4.2
2,A23U C76G G80U G88A C96U U135C,≤ -4.2
3,A23G A107C,≤ -4.2
4,A23C A28C C57U A60C U111C U144G U145G,≤ -4.2
5,A23C U56A G88U C103A A106G A120U,≤ -4.2
6,A23C C36U C57G G58A C85A G136A,≤ -4.2
7,A23U C85U C96G C105U A107G,≤ -4.2
8,A23U C85G,≤ -4.2
9,A23C C79A C103U A138G G143C,≤ -4.2
10,A23U C75U G84U C99A,≤ -4.2
11,A23G U33G A37U G58U C69U A110U,≤ -4.2
12,A23C C36U A60C G86A A121U,≤ -4.2
13,A23G U101A,-3.18
14,A23C G81U C96U,≤ -4.2
15,A23U C57A C85G A89G A120G U127G,≤ -4.2
16,A23U C35A A47C G124C,≤ -4.2
17,A23C A47U G50A G128A C129U,≤ -4.2
18,A23U G71A C79U G94C C108U U109G A115C G143C,≤ -4.2
19,A23U G48A C85U,≤ -4.2
20,A23C C76U C87A,≤ -4.2
21,A23C A41C A66G G71A G133A,≤ -4.2
22,A23U A73U C105A,≤ -4.2
23,A23C C57U G74C G92U U102A A115C G143C U151A,≤ -4.2
24,A23U A40U A73G,≤ -4.2

row,Variant,polymerase ribozyme fitness (log ratio)
1,A23G G84U,-3.88
2,A23C G25C C27G U53A C54G A66G G80A A91G G92A C99U,≤ -4.2
3,A23G C79G U148C U151C,≤ -4.2
4,A23U A52C U55A G81U G84A C99A,≤ -4.2
5,A23C G46C C54G G86A G100C A142C,≤ -4.2
6,A23G A52U,-3.51
7,A23C A49C A60G G68U C72U C123G G124A G143C,≤ -4.2
8,A23C C27U A29G C87U A110G,≤ -4.2
9,A23U A28G G46U G48A C57G G81C C95G,≤ -4.2
10,A22U U102G,-2.64
11,A23U C43G C57G C95U U102G U146A A150G,≤ -4.2
12,A23U G46U C87U G88U A119G A120C G133U,≤ -4.2
13,A23U A73G C87U C105A,≤ -4.2
14,A23U G59C C79A C93U,≤ -4.2
15,A23U A91C U151G,≤ -4.2
16,A23U A41G U53A A150C,≤ -4.2
17,A22U U56A A106U A107C A142G,≤ -4.2
18,A23U A28U C54U C76G C85A C105G,≤ -4.2
19,A23C G74C U77A G92U C131G,≤ -4.2
20,A23C G48C G68C C99U U101C A122U U144G,≤ -4.2
21,A23U C108A G143C,≤ -4.2
22,A23C C27A C36U U44A A91U,≤ -4.2
23,A23G G86A G100A,≤ -4.2
